T1: intermediate affinity hIL-2 receptor (hIL-2Rβγ) on TF1+IL-2Rβ cells (human, UniProt P14784 27-551; P31785 23-369)
T1 sequence 1: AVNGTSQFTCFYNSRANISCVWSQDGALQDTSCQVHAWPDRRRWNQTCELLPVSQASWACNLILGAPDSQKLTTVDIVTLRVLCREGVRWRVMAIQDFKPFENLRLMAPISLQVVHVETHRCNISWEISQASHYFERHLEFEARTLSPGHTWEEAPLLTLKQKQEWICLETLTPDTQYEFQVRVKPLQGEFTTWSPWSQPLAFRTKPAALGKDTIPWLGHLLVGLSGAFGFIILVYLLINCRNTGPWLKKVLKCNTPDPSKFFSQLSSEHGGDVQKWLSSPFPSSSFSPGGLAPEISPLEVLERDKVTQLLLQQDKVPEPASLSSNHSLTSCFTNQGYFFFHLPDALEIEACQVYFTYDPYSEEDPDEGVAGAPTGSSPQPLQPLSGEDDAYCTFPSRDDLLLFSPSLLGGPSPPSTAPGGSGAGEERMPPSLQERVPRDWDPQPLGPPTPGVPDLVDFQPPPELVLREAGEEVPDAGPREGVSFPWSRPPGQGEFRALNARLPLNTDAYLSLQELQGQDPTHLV
T1 sequence 2: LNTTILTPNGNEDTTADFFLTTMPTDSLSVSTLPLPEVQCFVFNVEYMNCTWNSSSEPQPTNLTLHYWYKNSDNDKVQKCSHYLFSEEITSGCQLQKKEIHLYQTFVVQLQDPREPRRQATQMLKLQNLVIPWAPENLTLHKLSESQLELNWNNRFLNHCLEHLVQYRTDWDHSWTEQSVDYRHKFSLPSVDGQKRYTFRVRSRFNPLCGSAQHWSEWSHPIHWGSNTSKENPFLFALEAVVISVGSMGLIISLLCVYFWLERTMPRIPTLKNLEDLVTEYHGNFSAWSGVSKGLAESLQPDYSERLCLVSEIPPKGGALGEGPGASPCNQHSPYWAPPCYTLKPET

T2: high affinity hIL-2 receptor (hIL-2Rαβγ) on NK-92 cells (human, UniProt P01589 22-272; P14784 27-551; P31785 23-369)
T2 sequence 1: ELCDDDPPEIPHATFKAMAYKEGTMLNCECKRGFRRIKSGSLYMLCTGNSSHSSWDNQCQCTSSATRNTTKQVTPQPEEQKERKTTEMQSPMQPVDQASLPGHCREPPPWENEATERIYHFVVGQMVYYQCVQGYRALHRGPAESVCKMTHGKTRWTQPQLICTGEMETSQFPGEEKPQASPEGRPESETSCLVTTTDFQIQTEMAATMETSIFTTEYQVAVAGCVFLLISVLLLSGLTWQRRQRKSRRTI
T2 sequence 2: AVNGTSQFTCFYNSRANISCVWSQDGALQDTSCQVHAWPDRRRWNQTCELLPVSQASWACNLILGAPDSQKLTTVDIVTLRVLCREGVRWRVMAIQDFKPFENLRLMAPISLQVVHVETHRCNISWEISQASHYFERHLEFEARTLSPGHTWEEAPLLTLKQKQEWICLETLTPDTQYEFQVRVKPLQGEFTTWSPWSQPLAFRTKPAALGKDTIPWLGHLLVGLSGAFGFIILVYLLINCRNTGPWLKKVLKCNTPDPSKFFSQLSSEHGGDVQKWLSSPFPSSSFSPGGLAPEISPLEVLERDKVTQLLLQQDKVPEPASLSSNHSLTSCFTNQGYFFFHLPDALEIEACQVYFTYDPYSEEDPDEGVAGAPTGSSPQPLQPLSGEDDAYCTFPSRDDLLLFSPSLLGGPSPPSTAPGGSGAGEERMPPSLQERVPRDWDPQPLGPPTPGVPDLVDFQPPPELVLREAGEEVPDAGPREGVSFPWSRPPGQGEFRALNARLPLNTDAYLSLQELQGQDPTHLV
T2 sequence 3: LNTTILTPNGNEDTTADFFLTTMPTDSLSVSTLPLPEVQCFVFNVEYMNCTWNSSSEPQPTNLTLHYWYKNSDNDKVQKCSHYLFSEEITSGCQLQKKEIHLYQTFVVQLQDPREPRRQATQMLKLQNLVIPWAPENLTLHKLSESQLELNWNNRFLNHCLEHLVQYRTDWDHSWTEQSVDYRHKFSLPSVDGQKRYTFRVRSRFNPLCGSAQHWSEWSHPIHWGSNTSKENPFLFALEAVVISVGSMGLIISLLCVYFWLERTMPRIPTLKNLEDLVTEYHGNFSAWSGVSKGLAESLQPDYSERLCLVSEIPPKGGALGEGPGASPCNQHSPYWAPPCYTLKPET


Experiments:
[1] = biological target: T1, intermediate affinity hIL-2 receptor …; assay: cell-based or functional assay
[2] = biological target: T2, high affinity hIL-2 receptor …; assay: cell-based or functional assay

Binder	Fold change from rhIL-2 (TF1 + IL-2Rβ) [1] [fold]	Agonistic Activity (NK-92) [2] [%]	Fold change from rhIL-2 (NK-92) [2] [fold]	Agonistic Activity (TF1 + IL-2Rβ) [1] [%]
1H3-hIgG1-L6-hCD25(1-164)-L20-hIL-2 (E15A) (other) heavy: EVQLVESGGGLVQPGRSLKLSCAVSGFTFSDYAMAWVRQAPKKGLEWVATISYDGSRTYYRDSVKGRFTISRDNAKITLYLQMDSLRSEDTATYYCARHGSGYFDYWGQGVMVTVSS[not shown - human IgG1 constant region]SGGGGSELCDDDPPEIPHATFKAMAYKEGTMLNCECKRGFRRIKSGSLYMLCTGNSSHSSWDNQCQCTSSATRNTTKQVTPQPEEQKERKTTEMQSPMQPVDQASLPGHCREPPPWENEATERIYHFVVGQMVYYQCVQGYRALHRGPAESVCKMTHGKTRWTQPQLICTSGGGGSGGGGSGGGGSGGGS[not shown - about 150 residues] light: DTVLTQSPALAVSPGERVTISCRASESVRTGVHWYQQKPGQQPKLLIYGASNLESGVPARFSGSGSGTDFTLTIDPVEADDTATYFCQQSWNDPFTFGSGTKLEIKRTVAAPSVFIFPPSDEQLKSGTASVVCLLNNFYPREAKVQWKVDNALQSGNSQESVTEQDSKDSTYSLSSTLTLSKADYEKHKVYACEVTHQGLSSPVTKSFNRGEC	13	90	14	
1H3-hIgG1-L6-hCD25(1-164)-L20-hIL-2 (D20S) (other) heavy: EVQLVESGGGLVQPGRSLKLSCAVSGFTFSDYAMAWVRQAPKKGLEWVATISYDGSRTYYRDSVKGRFTISRDNAKITLYLQMDSLRSEDTATYYCARHGSGYFDYWGQGVMVTVSS[not shown - human IgG1 constant region]SGGGGSELCDDDPPEIPHATFKAMAYKEGTMLNCECKRGFRRIKSGSLYMLCTGNSSHSSWDNQCQCTSSATRNTTKQVTPQPEEQKERKTTEMQSPMQPVDQASLPGHCREPPPWENEATERIYHFVVGQMVYYQCVQGYRALHRGPAESVCKMTHGKTRWTQPQLICTSGGGGSGGGGSGGGGSGGGS[not shown - about 150 residues] light: DTVLTQSPALAVSPGERVTISCRASESVRTGVHWYQQKPGQQPKLLIYGASNLESGVPARFSGSGSGTDFTLTIDPVEADDTATYFCQQSWNDPFTFGSGTKLEIKRTVAAPSVFIFPPSDEQLKSGTASVVCLLNNFYPREAKVQWKVDNALQSGNSQESVTEQDSKDSTYSLSSTLTLSKADYEKHKVYACEVTHQGLSSPVTKSFNRGEC	~8710		127	50
1H3-hIgG1-L6-hCD25(1-164)-L20-hIL-2 (D20W) (other) heavy: EVQLVESGGGLVQPGRSLKLSCAVSGFTFSDYAMAWVRQAPKKGLEWVATISYDGSRTYYRDSVKGRFTISRDNAKITLYLQMDSLRSEDTATYYCARHGSGYFDYWGQGVMVTVSS[not shown - human IgG1 constant region]SGGGGSELCDDDPPEIPHATFKAMAYKEGTMLNCECKRGFRRIKSGSLYMLCTGNSSHSSWDNQCQCTSSATRNTTKQVTPQPEEQKERKTTEMQSPMQPVDQASLPGHCREPPPWENEATERIYHFVVGQMVYYQCVQGYRALHRGPAESVCKMTHGKTRWTQPQLICTSGGGGSGGGGSGGGGSGGGS[not shown - about 150 residues] light: DTVLTQSPALAVSPGERVTISCRASESVRTGVHWYQQKPGQQPKLLIYGASNLESGVPARFSGSGSGTDFTLTIDPVEADDTATYFCQQSWNDPFTFGSGTKLEIKRTVAAPSVFIFPPSDEQLKSGTASVVCLLNNFYPREAKVQWKVDNALQSGNSQESVTEQDSKDSTYSLSSTLTLSKADYEKHKVYACEVTHQGLSSPVTKSFNRGEC	> 10000		> 10000	
1H3-hIgG1-L6-hCD25(1-164)-L20-hIL-2 (D20Y) (other) heavy: EVQLVESGGGLVQPGRSLKLSCAVSGFTFSDYAMAWVRQAPKKGLEWVATISYDGSRTYYRDSVKGRFTISRDNAKITLYLQMDSLRSEDTATYYCARHGSGYFDYWGQGVMVTVSS[not shown - human IgG1 constant region]SGGGGSELCDDDPPEIPHATFKAMAYKEGTMLNCECKRGFRRIKSGSLYMLCTGNSSHSSWDNQCQCTSSATRNTTKQVTPQPEEQKERKTTEMQSPMQPVDQASLPGHCREPPPWENEATERIYHFVVGQMVYYQCVQGYRALHRGPAESVCKMTHGKTRWTQPQLICTSGGGGSGGGGSGGGGSGGGS[not shown - about 150 residues] light: DTVLTQSPALAVSPGERVTISCRASESVRTGVHWYQQKPGQQPKLLIYGASNLESGVPARFSGSGSGTDFTLTIDPVEADDTATYFCQQSWNDPFTFGSGTKLEIKRTVAAPSVFIFPPSDEQLKSGTASVVCLLNNFYPREAKVQWKVDNALQSGNSQESVTEQDSKDSTYSLSSTLTLSKADYEKHKVYACEVTHQGLSSPVTKSFNRGEC	> 10000	50	> 10000	
1H3-hIgG1-L6-hCD25(1-164)-L20-hIL-2 (D84K) (other) heavy: EVQLVESGGGLVQPGRSLKLSCAVSGFTFSDYAMAWVRQAPKKGLEWVATISYDGSRTYYRDSVKGRFTISRDNAKITLYLQMDSLRSEDTATYYCARHGSGYFDYWGQGVMVTVSS[not shown - human IgG1 constant region]SGGGGSELCDDDPPEIPHATFKAMAYKEGTMLNCECKRGFRRIKSGSLYMLCTGNSSHSSWDNQCQCTSSATRNTTKQVTPQPEEQKERKTTEMQSPMQPVDQASLPGHCREPPPWENEATERIYHFVVGQMVYYQCVQGYRALHRGPAESVCKMTHGKTRWTQPQLICTSGGGGSGGGGSGGGGSGGGS[not shown - about 150 residues] light: DTVLTQSPALAVSPGERVTISCRASESVRTGVHWYQQKPGQQPKLLIYGASNLESGVPARFSGSGSGTDFTLTIDPVEADDTATYFCQQSWNDPFTFGSGTKLEIKRTVAAPSVFIFPPSDEQLKSGTASVVCLLNNFYPREAKVQWKVDNALQSGNSQESVTEQDSKDSTYSLSSTLTLSKADYEKHKVYACEVTHQGLSSPVTKSFNRGEC	~2050	90	783	30
1H3-hIgG1-L6-hCD25(1-164)-L20-hIL-2 (S87A) (other) heavy: EVQLVESGGGLVQPGRSLKLSCAVSGFTFSDYAMAWVRQAPKKGLEWVATISYDGSRTYYRDSVKGRFTISRDNAKITLYLQMDSLRSEDTATYYCARHGSGYFDYWGQGVMVTVSS[not shown - human IgG1 constant region]SGGGGSELCDDDPPEIPHATFKAMAYKEGTMLNCECKRGFRRIKSGSLYMLCTGNSSHSSWDNQCQCTSSATRNTTKQVTPQPEEQKERKTTEMQSPMQPVDQASLPGHCREPPPWENEATERIYHFVVGQMVYYQCVQGYRALHRGPAESVCKMTHGKTRWTQPQLICTSGGGGSGGGGSGGGGSGGGS[not shown - about 150 residues] light: DTVLTQSPALAVSPGERVTISCRASESVRTGVHWYQQKPGQQPKLLIYGASNLESGVPARFSGSGSGTDFTLTIDPVEADDTATYFCQQSWNDPFTFGSGTKLEIKRTVAAPSVFIFPPSDEQLKSGTASVVCLLNNFYPREAKVQWKVDNALQSGNSQESVTEQDSKDSTYSLSSTLTLSKADYEKHKVYACEVTHQGLSSPVTKSFNRGEC	20	90	19	90
1H3-hIgG1-L6-hCD25(1-164)-L20-hIL-2 (N88D) (other) heavy: EVQLVESGGGLVQPGRSLKLSCAVSGFTFSDYAMAWVRQAPKKGLEWVATISYDGSRTYYRDSVKGRFTISRDNAKITLYLQMDSLRSEDTATYYCARHGSGYFDYWGQGVMVTVSS[not shown - human IgG1 constant region]SGGGGSELCDDDPPEIPHATFKAMAYKEGTMLNCECKRGFRRIKSGSLYMLCTGNSSHSSWDNQCQCTSSATRNTTKQVTPQPEEQKERKTTEMQSPMQPVDQASLPGHCREPPPWENEATERIYHFVVGQMVYYQCVQGYRALHRGPAESVCKMTHGKTRWTQPQLICTSGGGGSGGGGSGGGGSGGGS[not shown - about 150 residues] light: DTVLTQSPALAVSPGERVTISCRASESVRTGVHWYQQKPGQQPKLLIYGASNLESGVPARFSGSGSGTDFTLTIDPVEADDTATYFCQQSWNDPFTFGSGTKLEIKRTVAAPSVFIFPPSDEQLKSGTASVVCLLNNFYPREAKVQWKVDNALQSGNSQESVTEQDSKDSTYSLSSTLTLSKADYEKHKVYACEVTHQGLSSPVTKSFNRGEC	~3280		50	90

Source: patent US20240076343A1 (CEPHALON, published 2024)
